Reference: the supplement of paper PMC3334620
In all, about 33,000 sequences were measured (“E-score (-0.5 to 0.5)”: median about -0.056, highest 2% from about 0.38 on). Some of the results follow.

What follows are sequences tested against Stb4 (UniProt P50104) (assay: PBM E-score (8-mer binding enrichment) (E-score (-0.5 to 0.5)); higher = stronger / more preferred TF binding; most listed sequences are background and not binding sites). Conditions: protein concentration: 200 nM; construct: GST-DNA-binding domain.
In short: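 Using PURExpress in vitro transcription/translation, GST-tagged yeast transcription factors were made in full-length or DNA-binding-domain form. These were applied at about 100-200 nM to double-stranded universal all-10-mer Agilent arrays, and bound protein was detected with fluorescent anti-GST. Scans were normalised with masliner before the Universal PBM Analysis Suite assigned E-scores to ungapped eight-base words pooled with their reverse complements.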

Sequence | PBM E-score
TAATCTCA | -0.0951
ACGGGCTA | -0.139
CTTCTGAA | -0.0669
CCGCGACG | 0.165
ACATGGCG | -0.0821
AAGTTAAA | -0.204
ATAGGTAG | -0.122
CGGGACGA | 0.263
ACTTAAGC | -0.0689
AAAAAGAG | -0.186
GCGAATAA | -0.0694
AGACCGAG | 0.294
AAGTCCAG | -0.193
CCAGGGCC | -0.175
GGAATGGA | 0.0531
ACGATAAG | 0.0585
AATTCTAC | -0.17
CTGGGAAG | -0.173
AAAGGGCC | -0.0436
CAAATGTC | -0.067
TCATTTCA | -0.15
CTGAGAAC | -0.0911
ATTGGCGC | 0.00693
GGACAAAA | 0.243
CGGCATTC | 0.226

Sequence | PBM E-score
GGGGTATA | 0.06
AGCCCACA | -0.188
ACATGGAC | -0.268
ATGCACCC | 0.109
CACTCGAC | -0.106
ACGACTAG | -0.171
CATGGCGC | 0.0301
CACGACGC | -0.018
ACGGGGCG | 0.0234
CGCCCGCC | 0.0876
CGCATCCG | 0.408
AGATTTGC | -0.0414
ATCCATTA | 0.0166
ATACATCG | 0.115
AACGCATG | 0.0295
AACAAGTT | -0.0149
AGTGCAGA | -0.0602
AGTACAGC | -0.108
AAAACCGC | -0.0584
AGGTCGTA | -0.232
ACTCCTCA | -0.249
ATACAATC | -0.0768
AAACTCCA | -0.203
CGTGTGGC | -0.262
AGTCATGG | -0.16

Sequence | PBM E-score
ACTACCAG | -0.145
CTCACACC | -0.0292
AATAAAGT | -0.104
AGAGAATG | -0.212
GCTATGCC | -0.0935
CCCTGCTA | -0.236
TCTATCAA | -0.247
ATCGCCAA | -0.259
GGGTCGCA | 0.0668
ACCATGCG | -0.00748
ATGTCCTC | -0.121
CATTGGTA | 0.0662
CGCCTATC | -0.0131
GCTCTTGA | -0.0465
ATCAAGAA | -0.199
AGTATCCA | 0.0731
ACCCCTAT | -0.143
AAGATGAA | -0.0212
GTCAACGA | -0.347
CGACCTGC | 0.108
CGATGTGC | 0.161
CAGTGTGA | -0.0509
TGATTACA | -0.128
AGCTACTG | -5e-05
TAACGCCA | -0.0587

Sequence | PBM E-score
ATGCCTAG | -0.0631
CAACCTCC | 0.0663
CGATCCGA | 0.475
CTGCGCAA | -0.0522
CAAAACAC | 0.00586
TAACTACA | -0.00302
CACCCTCC | 0.104
CTGTATGA | 0.0729
ACGTAGAG | -0.16
AACGAGCT | -0.256
AAACCTTC | 0.0498
CCTCAGCG | -0.135
GATTGTTA | 0.0433
CCAGTAGC | 0.124
ATGAACTG | -0.0676
AGTGGAAG | 0.012
CCCGACTC | 0.298
ACTCCCAC | -0.111
GATGGCCA | -0.215
GTGCGTTA | -0.0338
TGATACAA | -0.224
ACCATTCT | -0.0382
GACAGGAA | 0.0874
CACCCTGA | -0.0952
AATACTCG | 0.0844

Sequence | PBM E-score
CTACAAGA | -0.114
CGTCTGTC | -0.0668
GACATGAA | -0.129
CGCTTTCA | 0.0445
CGCGCACG | 0.0643
CTCTAACC | 0.0253
CAGCTCCG | 0.21
CTTCTAAC | -0.111
AACTATAA | 0.0489
TAAGCCTA | -0.0531
CGTAGCAG | -0.168
GGACTTCA | -0.0404
ACTTGGCA | -0.228
AGCCTATG | -0.207
GTTCTCAA | -0.264
CGACGCAC | 0.0089
GATGGACC | -0.0264
ACTTCGCG | 0.116
ACTACAAG | -0.119
CTCAGGTC | -0.129
CATGACCC | -0.0921
GCCACCAC | -0.263
CTCAACCC | -0.118
CACTTGCC | 0.0414
ATTTATGG | -0.152

Sequence | PBM E-score
CTGCCTAA | -0.169
GGAACAGA | 0.206
CATGTAGC | -0.212
AAGCGTGC | -0.14
TCTTTGCA | -0.167
ATGACCCG | 0.131
GCATACGA | -0.201
CCGCAGAA | 0.0874
CGTTTTCC | 0.0321
CGAACTTA | 0.105
CGACGTGC | -0.0466
ATCGTCTA | -0.179
CCTCGAAA | -0.27
AAGGAGTA | 0.0501
AATTGTCG | 0.0849
TATGGCCA | -0.103
AGTCGACA | -0.129
CTTAACTC | 0.0687
GGCGATGA | -0.07
CGGCCAGC | 0.0702
AGCCCGAG | 0.231
AGAGCTCT | -0.0781
ACCAGCAC | -0.234
CCAAGCCG | 0.0562
CCCAGAGC | -0.299

Sequence | PBM E-score
GGCATACA | 0.0596
ACAGTCAC | -0.217
TAAGTTGA | -0.103
ACTTCCCT | -0.0362
CAGGCGTA | -0.127
GAGTGCCC | -0.138
GGTTCACA | -0.0832
ATCCGCGA | 0.247
AAGGTATA | -0.0756
TAAGCGCA | -0.196
ACCAATGG | -0.0211
CACCCACC | 0.0372
CCCCAGAA | -0.0466
GCCTACCA | -0.123
ATAATGAG | -0.184
CACACCTG | -0.179
AGGCACGG | 0.17
CTCAGTTC | -0.172
AGATTGAT | -0.0377
GCATAGTA | -0.0527
AAGACGTG | -0.0373
CATGTTGA | 0.0457
GCCGTCTA | 0.0371
ATCTGTCG | 0.139
CCATGCTA | -0.161

Sequence | PBM E-score
ATCCCTTA | -0.282
TCTTCAAA | -0.158
GTAACAAC | -0.0132
AAGTCTTA | -0.205
GCTAACAA | -0.0834
GGCGTGCA | -0.0222
TACACACA | -0.0626
CTAACAAA | -0.197
GTGCATGA | -0.101
CTCATCGC | -0.127
CGTCGATC | 0.0907
ACCATAGA | -0.0437
AACCAGTA | -0.0318
AAACTGAT | -0.121
GTGCAACA | -0.127
TACCCTAA | -0.238
AGGTTTAT | 0.0868
GTGTGATA | 0.0375
CCTGTGCG | -0.126
CAACTTAA | -0.135
CGATGTTA | 0.0139
AGTAGAAA | 0.0591
CACTTACC | 0.109
GAAGTAAC | 0.0744
TGCCATAA | -0.107

Sequence | PBM E-score
CGGGGAAA | 0.263
GTCTGGAA | -0.201
GACGTTAC | -0.0517
AAGGAGCG | -0.22
AGGGTACC | -0.112
GCGACATA | -0.237
AAGATGGC | -0.115
AATTCACC | 0.111
GATATCCC | 0.216
CAATGTGC | 0.00847
GATATGCA | 0.0512
ACGGATCC | 0.352
ATGATCGA | -0.0115
AGTGAGAA | -0.0836
GCTCGCTA | -0.166
AGTACCAT | -0.115
ATAGGAGG | -0.228
TGGAATAA | 0.072
CAGACATG | -0.18
